{"source": "the supplement of paper PMC4604168 (melanoma cell lines)", "note": "The other results are listed elsewhere or left out. Many values rest on one well or one pass, so single values are uncertain."}
{"system": "WM115", "assay": "cell count relative to DMSO control; melanoma cells; higher = more viable cells", "conditions": "library dose: standard library concentration; 72 h; first compound 2 µM", "units": {"cell count": "%"}}
{"compound": "C[C@@H](N)c1ccc(C(=O)Nc2ccnc3[nH]ccc23)cc1", "note": "+ NC1(c2ccc(-c3nc4ccn5c(=O)[nH]nc5c4cc3-c3ccccc3)cc2)CCC1 [MK2206] (partner dose 2 µM);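 also: cells treated in 1,536-well plates, then fixed and DAPI-stained, with nuclei counted from automated high-throughput microscope images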", "cell count": 72.2}
{"compound": "CCCCCCCCCCCCCCCCCCOP(=O)([O-])OC1CC[N+](C)(C)CC1", "note": "[Perifosine] + Cc1cn(-c2cc(NC(=O)c3ccc(C)c(Nc4nccc(-c5cccnc5)n4)c3)cc(C(F)(F)F)c2)cn1 [nilotinib] (partner dose 1 µM)", "cell count": 128}
{"compound": "Cn1sc(=O)n(Cc2ccccc2)c1=O", "note": "+ CN(c1ncccc1CNc1nc(Nc2ccc3c(c2)CC(=O)N3)ncc1C(F)(F)F)S(C)(=O)=O [PF562271] (partner dose 0.4 µM)", "cell count": 66.4}
{"compound": "C[C@@H](N)c1ccc(C(=O)Nc2ccnc3[nH]ccc23)cc1", "note": "+ C=C(c1ccc(C(=O)O)cc1)c1cc2c(cc1C)C(C)(C)CCC2(C)C [Bexarotene] (partner dose 10 µM)", "cell count": 104}
{"compound": "CCCCCCCCCCCCCCCCCCOP(=O)([O-])OC1CC[N+](C)(C)CC1", "note": "[Perifosine] + Cc1cc(Nc2cc(N3CCN(C)CC3)nc(/C=C/c3ccccc3)n2)n[nH]1 [ENMD2076] (partner dose 0.2 µM)", "cell count": 54.2}
{"compound": "C[C@@H](N)c1ccc(C(=O)Nc2ccnc3[nH]ccc23)cc1", "note": "+ CN(NC(=O)CC(=O)NN(C)C(=S)c1ccccc1)C(=S)c1ccccc1 [STA4783] (partner dose 0.03 µM)", "cell count": 23.4}
{"compound": "Cn1sc(=O)n(Cc2ccccc2)c1=O", "note": "+ COc1cc(Nc2ncc(F)c(Nc3ccc4c(n3)NC(=O)C(C)(C)O4)n2)cc(OC)c1OC [Tamatinib] (partner dose 2 µM)", "cell count": 92.7}
